Some of the results follow.
How the values were obtained:
Assay in all cases: glycan array binding signal (z-score within array); higher = stronger binding
Details in all cases: glycan notation: IUPAC condensed, linker removed; mutation: N224Q
[1] = biological target: GlcNAc(b1-3)Gal(b1-4)GlcNAc(b1-3)Gal(b1-4)GlcNAc(b1-2)Man(a1-3)[GlcNAc(b1-3)Gal(b1-4)GlcNAc(b1-3)Gal(b1-4)GlcNAc(b1-2)Man(a1-6)]Man(b1-4)GlcNAc(b1-4)GlcNAc
In short: (§1)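 From the Consortium for Functional Glycomics database, 3228 arrays were curated, keeping only those whose protein sequence was available. Binding is given as a within-array Z-score averaged across arrays sharing a protein sequence and across linkers. Negative Z-scores can be read as non-binding.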

[2] = biological target: GlcNAc(b1-3)Gal(b1-4)GlcNAc(b1-3)Gal(b1-4)GlcNAc(b1-2)Man(a1-3)[GlcNAc(b1-3)Gal(b1-4)GlcNAc(b1-3)Gal(b1-4)GlcNAc(b1-2)Man(a1-6)]Man(b1-4)GlcNAc(b1-4)[Fuc(a1-6)]GlcNAc
In short: as §1

[3] = biological target: GlcNAc(b1-3)Gal(b1-4)GlcNAc(b1-3)Gal(b1-4)GlcNAc(b1-2)[GlcNAc(b1-3)Gal(b1-4)GlcNAc(b1-3)Gal(b1-4)GlcNAc(b1-6)]Man(a1-6)[GlcNAc(b1-3)Gal(b1-4)GlcNAc(b1-3)Gal(b1-4)GlcNAc(b1-2)Man(a1-3)]Man(b1-4)GlcNAc(b1-4)[Fuc(a1-6)]GlcNAc
In short: as §1

[4] = biological target: GlcNAc(b1-3)Gal(b1-4)GlcNAc(b1-3)Gal(b1-4)GlcNAc(b1-3)Gal(b1-4)GlcNAc(b1-2)Man(a1-3)[GlcNAc(b1-3)Gal(b1-4)GlcNAc(b1-3)Gal(b1-4)GlcNAc(b1-3)Gal(b1-4)GlcNAc(b1-2)Man(a1-6)]Man(b1-4)GlcNAc(b1-4)GlcNAc
In short: as §1

[5] = biological target: GlcNAc(b1-3)Gal(b1-4)GlcNAc(b1-3)Gal(b1-4)GlcNAc(b1-3)Gal(b1-4)GlcNAc(b1-2)Man(a1-3)[GlcNAc(b1-3)Gal(b1-4)GlcNAc(b1-3)Gal(b1-4)GlcNAc(b1-3)Gal(b1-4)GlcNAc(b1-2)Man(a1-6)]Man(b1-4)GlcNAc(b1-4)[Fuc(a1-6)]GlcNAc
In short: as §1

[6] = biological target: GlcNAc(b1-3)Gal(b1-4)GlcNAc(b1-3)Gal(b1-4)GlcNAc(b1-3)Gal(b1-4)GlcNAc(b1-2)[GlcNAc(b1-3)Gal(b1-4)GlcNAc(b1-3)Gal(b1-4)GlcNAc(b1-3)Gal(b1-4)GlcNAc(b1-6)]Man(a1-6)[GlcNAc(b1-3)Gal(b1-4)GlcNAc(b1-3)Gal(b1-4)GlcNAc(b1-3)Gal(b1-4)GlcNAc(b1-2)Man(a1-3)]Man(b1-4)GlcNAc(b1-4)[Fuc(a1-6)]GlcNAc
In short: as §1

[7] = biological target: GlcNAc(b1-3)Gal(b1-4)GlcNAc(b1-3)Gal(b1-4)GlcNAc(b1-3)Gal(b1-4)GlcNAc(b1-3)Gal(b1-4)GlcNAc(b1-2)Man(a1-3)[GlcNAc(b1-3)Gal(b1-4)GlcNAc(b1-3)Gal(b1-4)GlcNAc(b1-3)Gal(b1-4)GlcNAc(b1-3)Gal(b1-4)GlcNAc(b1-2)Man(a1-6)]Man(b1-4)GlcNAc(b1-4)GlcNAc
In short: as §1

[8] = biological target: GlcNAc(b1-3)Gal(b1-4)GlcNAc(b1-3)Gal(b1-4)GlcNAc(b1-3)Gal(b1-4)GlcNAc(b1-3)Gal(b1-4)GlcNAc(b1-2)Man(a1-3)[GlcNAc(b1-3)Gal(b1-4)GlcNAc(b1-3)Gal(b1-4)GlcNAc(b1-3)Gal(b1-4)GlcNAc(b1-3)Gal(b1-4)GlcNAc(b1-2)Man(a1-6)]Man(b1-4)GlcNAc(b1-4)[Fuc(a1-6)]GlcNAc
In short: as §1

[9] = biological target: GlcNAc(b1-3)Gal(b1-4)GlcNAc(b1-3)Gal(b1-4)GlcNAc(b1-3)Gal(b1-4)GlcNAc(b1-3)Gal(b1-4)GlcNAc(b1-2)[GlcNAc(b1-3)Gal(b1-4)GlcNAc(b1-3)Gal(b1-4)GlcNAc(b1-3)Gal(b1-4)GlcNAc(b1-3)Gal(b1-4)GlcNAc(b1-6)]Man(a1-6)[GlcNAc(b1-3)Gal(b1-4)GlcNAc(b1-3)Gal(b1-4)GlcNAc(b1-3)Gal(b1-4)GlcNAc(b1-3)Gal(b1-4)GlcNAc(b1-2)Man(a1-3)]Man(b1-4)GlcNAc(b1-4)[Fuc(a1-6)]GlcNAc
In short: as §1

[10] = biological target: GlcNAc(b1-3)Gal(b1-4)GlcNAc(b1-3)Gal(b1-4)GlcNAc(b1-3)GalNAc
In short: as §1

[11] = biological target: GlcNAc(b1-3)Gal(b1-4)GlcNAc(b1-3)GalNAc
In short: as §1

[12] = biological target: GlcNAc(b1-3)Gal(b1-4)GlcNAc(b1-3)[GlcNAc(b1-3)Gal(b1-4)GlcNAc(b1-3)]GalNAc
In short: as §1

[13] = biological target: GlcNAc(b1-3)Gal(b1-4)GlcNAc(b1-6)[Gal(b1-3)]GalNAc
In short: as §1

[14] = biological target: GlcNAc(b1-3)Gal(b1-4)GlcNAc(b1-6)[GlcNAc(b1-3)Gal(b1-3)]GalNAc
In short: as §1

[15] = biological target: GlcNAc(b1-3)Gal(b1-4)GlcNAc(b1-6)[GlcNAc(b1-3)]Gal(b1-4)GlcNAc
In short: as §1

[16] = biological target: GlcNAc(b1-3)GalNAc
In short: as §1

[17] = biological target: GlcNAc(b1-3)Man
In short: as §1

[18] = biological target: GlcNAc(b1-3)[GlcNAc(b1-4)][GlcNAc(b1-6)]GlcNAc
In short: as §1

[19] = biological target: GlcNAc(b1-3)[GlcNAc(b1-6)]Gal(b1-4)GlcNAc
In short: as §1

[20] = biological target: GlcNAc(b1-3)[GlcNAc(b1-6)]GalNAc
In short: as §1

[21] = biological target: GlcNAc(b1-4)Gal(b1-4)GlcNAc
In short: as §1

[22] = biological target: GlcNAc(b1-4)GlcNAc
In short: as §1

[23] = biological target: GlcNAc(b1-4)GlcNAc(b1-4)GlcNAc
In short: as §1

[24] = biological target: GlcNAc(b1-4)GlcNAc(b1-4)GlcNAc(b1-4)GlcNAc(b1-4)GlcNAc
In short: as §1

[25] = biological target: GlcNAc(b1-4)GlcNAc(b1-4)GlcNAc(b1-4)GlcNAc(b1-4)GlcNAc(b1-4)GlcNAc
In short: as §1

[26] = biological target: GlcNAc(b1-4)[GlcNAc(b1-6)]GalNAc
In short: as §1

[27] = biological target: GlcNAc(b1-6)Gal(b1-4)GlcNAc
In short: as §1

[28] = biological target: GlcNAc(b1-6)GalNAc
In short: as §1

[29] = biological target: GlcNAc6S(b1-3)Gal(b1-4)GlcNAc
In short: as §1

[30] = biological target: Kdn(a2-3)Gal(b1-3)GalNAc
In short: as §1

[31] = biological target: Kdn(a2-3)Gal(b1-3)GlcNAc
In short: as §1

[32] = biological target: Kdn(a2-3)Gal(b1-4)Glc
In short: as §1

[33] = biological target: Kdn(a2-3)Gal(b1-4)GlcNAc
In short: as §1

[34] = biological target: Kdn(a2-3)Gal(b1-4)[Fuc(a1-3)]GlcNAc
In short: as §1

[35] = biological target: Kdn(a2-6)Gal(b1-4)GlcNAc
In short: as §1

[36] = biological target: Man(a1-2)Man(a1-2)Man(a1-3)Man
In short: as §1

[37] = biological target: Man(a1-2)Man(a1-2)Man(a1-6)[Man(a1-3)]Man
In short: as §1

[38] = biological target: Man(a1-2)Man(a1-3)Man
In short: as §1

B1: AAL (Aleuria aurantia) (protein)
chain: MPTEFLYTSKIAAISWAATGGRQQRVYFQDLNGKIREAQRGGDNPWTGGSSQNVIGEAKLFSPLAAVTWKSAQGIQIRVYCVNKDNILSEFVYDGSKWITGQLGSVGVKVGSNSKLAALQWGGSESAPPNIRVYYQKSNGSGSSIHEYVWSGKWTAGASFGSTVPGTGIGATAIGPGRLRIYYQATDNKIREHCWDSNSWYVGGFSASASAGVSIAAISWGSTPQIRVYWQKGREELYEAAYGGSWNTPGQIKDASRPTPSLPDTFIAANSSGNIDISVFFQASGVSLQQWQWISGKGWSIGAVVPTGTPAGW
[1]
  glycan array binding signal (z-score): -0.108
[2]
  glycan array binding signal (z-score): 2.92
[3]
  glycan array binding signal (z-score): 0.179
[4]
  glycan array binding signal (z-score): -0.262
[5]
  glycan array binding signal (z-score): 1.82
[6]
  glycan array binding signal (z-score): -0.085
[7]
  glycan array binding signal (z-score): -0.259
[8]
  glycan array binding signal (z-score): 1.97
[9]
  glycan array binding signal (z-score): -0.25
[10]
  glycan array binding signal (z-score): -0.308
[11]
  glycan array binding signal (z-score): -0.305
[12]
  glycan array binding signal (z-score): -0.276
[13]
  glycan array binding signal (z-score): -0.31
[14]
  glycan array binding signal (z-score): -0.284
[15]
  glycan array binding signal (z-score): -0.31
[16]
  glycan array binding signal (z-score): -0.321
[17]
  glycan array binding signal (z-score): -0.306
[18]
  glycan array binding signal (z-score): -0.327
[19]
  glycan array binding signal (z-score): -0.322
[20]
  glycan array binding signal (z-score): -0.323
[21]
  glycan array binding signal (z-score): -0.334
[22]
  glycan array binding signal (z-score): -0.324
[23]
  glycan array binding signal (z-score): -0.328
[24]
  glycan array binding signal (z-score): -0.314
[25]
  glycan array binding signal (z-score): -0.321
[26]
  glycan array binding signal (z-score): -0.323
[27]
  glycan array binding signal (z-score): -0.311
[28]
  glycan array binding signal (z-score): -0.325
[29]
  glycan array binding signal (z-score): -0.313
[30]
  glycan array binding signal (z-score): -0.294
[31]
  glycan array binding signal (z-score): -0.318
[32]
  glycan array binding signal (z-score): -0.309
[33]
  glycan array binding signal (z-score): -0.32
[34]
  glycan array binding signal (z-score): -0.301
[35]
  glycan array binding signal (z-score): -0.312
[36]
  glycan array binding signal (z-score): -0.317
[37]
  glycan array binding signal (z-score): -0.312
[38]
  glycan array binding signal (z-score): -0.318

— the supplement of paper PMC8728848
